Data published in the BET-seq Pho4 binding data (Le et al. 2018).
Some of the results follow. These are noisy estimates, calculated here from bound and input reads.

molecular target: T1, Pho4 (S. cerevisiae) (UniProt P07270); assay: relative binding free energy (BET-seq); higher = weaker binding; settings: reference: library average
T1 sequence: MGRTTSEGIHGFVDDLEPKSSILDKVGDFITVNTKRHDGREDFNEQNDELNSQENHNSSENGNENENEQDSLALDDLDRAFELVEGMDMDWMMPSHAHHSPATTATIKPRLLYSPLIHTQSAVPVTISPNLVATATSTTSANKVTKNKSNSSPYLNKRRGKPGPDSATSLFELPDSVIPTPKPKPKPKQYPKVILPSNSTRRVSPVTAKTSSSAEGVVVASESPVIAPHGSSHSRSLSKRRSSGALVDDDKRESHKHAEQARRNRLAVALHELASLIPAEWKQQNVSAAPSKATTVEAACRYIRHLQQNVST

Sequence | relative binding free energy
CGAGGCACGTGAAAGT | 0.25 kcal/mol
TGGACCACGTGGATGT | 0.01 kcal/mol
AGGTACACGTGTGATA | 0.14 kcal/mol
ATAATCACGTGGGTTG | -0.04 kcal/mol
TTGTTCACGTGCTCAA | 0.39 kcal/mol
AGACGCACGTGTGGTT | -0.05 kcal/mol
CGGGTCACGTGGGACG | 0.05 kcal/mol
TTTGTCACGTGAAACT | 0.33 kcal/mol
TACAACACGTGTGGGT | 0.08 kcal/mol
TTGGTCACGTGAAAGC | 0.26 kcal/mol
GTTAACACGTGTTATT | 0.1 kcal/mol
TGGAACACGTGTAGTT | 0.08 kcal/mol
CTGGGCACGTGCCTGG | -0.16 kcal/mol
GGTTGCACGTGCTGCG | -0.1 kcal/mol
GGTAGCACGTGCGTAA | 0 kcal/mol
AGGGCCACGTGTAGAG | -0.03 kcal/mol
GCTGGCACGTGATGGG | -0.04 kcal/mol
CTGTACACGTGGTGTA | -0.1 kcal/mol
AGCTTCACGTGTGTAA | 0.32 kcal/mol
GTCGGCACGTGTCGGT | 0.02 kcal/mol
GCCGGCACGTGGGGAT | -0.2 kcal/mol
TGATGCACGTGAAGAG | 0.16 kcal/mol
GGAGGCACGTGCCGTG | -0.2 kcal/mol
TTGAACACGTGATATT | 0.14 kcal/mol
TTGATCACGTGTCGAG | 0.15 kcal/mol
TGATACACGTGTAGAT | 0.18 kcal/mol

Sequence | relative binding free energy
AAAACCACGTGTGGGG | 0 kcal/mol
AGATTCACGTGGCTTA | 0.22 kcal/mol
GGGGACACGTGTGAGG | 0.18 kcal/mol
CGTAGCACGTGTGTTT | 0.02 kcal/mol
TGTGTCACGTGGTTAT | 0.05 kcal/mol
GTTTGCACGTGGTAGA | -0.11 kcal/mol
TGACGCACGTGGGATG | -0.19 kcal/mol
TCTGTCACGTGTTATA | 0.07 kcal/mol
CTGTGCACGTGGTTCG | -0.23 kcal/mol
TGGCACACGTGGTGGC | 0.09 kcal/mol
ATGGGCACGTGGGAAC | -0.16 kcal/mol
AAATTCACGTGTTTCT | 0.11 kcal/mol
GGTTGCACGTGTCAGG | 0.19 kcal/mol
AATGGCACGTGTAGTA | -0.09 kcal/mol
GGATTCACGTGTGCTA | 0.29 kcal/mol
TAGGTCACGTGGCGCG | 0.19 kcal/mol
TAATGCACGTGGCTGG | -0.19 kcal/mol
GGTTCCACGTGTGAAG | 0.27 kcal/mol
ATAGGCACGTGAGAGT | 0.1 kcal/mol
TTGTTCACGTGGCACG | 0.22 kcal/mol
CATGGCACGTGATTTT | 0.05 kcal/mol
CGTGCCACGTGGGGTG | -0.25 kcal/mol
ATTGCCACGTGTTTAG | 0 kcal/mol
GGGCGCACGTGTACGG | -0.06 kcal/mol
GCGAACACGTGGGTGT | -0.14 kcal/mol
GGGTGCACGTGTGATT | 0.12 kcal/mol

Sequence | relative binding free energy
ACATGCACGTGTAGGT | -0.06 kcal/mol
GGGGTCACGTGGGATG | 0.02 kcal/mol
TGTTACACGTGTTTAC | 0.13 kcal/mol
CATGTCACGTGTAGGG | -0.08 kcal/mol
TCGTGCACGTGGGAGT | -0.15 kcal/mol
AGGTGCACGTGTGCCG | 0 kcal/mol
TATGACACGTGTTTGC | 0.02 kcal/mol
TGAGGCACGTGGGCTT | -0.25 kcal/mol
GTAGTCACGTGGGCGG | 0.03 kcal/mol
TTACGCACGTGTTTAG | -0.2 kcal/mol
TTGCACACGTGAATGT | 0.38 kcal/mol
TGTTGCACGTGCTCTG | -0.18 kcal/mol
GAGGTCACGTGGATTT | 0.31 kcal/mol
TGTCTCACGTGGTGGT | 0.16 kcal/mol
TGAATCACGTGGTAAG | 0.24 kcal/mol
ACTGTCACGTGTATGT | 0.02 kcal/mol
ATTAGCACGTGTAGGA | 0.01 kcal/mol
ATTTACACGTGTTTTG | 0.06 kcal/mol
GGCTCCACGTGGTTGT | -0.14 kcal/mol
TTTGCCACGTGGGTGC | -0.25 kcal/mol
TAATGCACGTGTCTGT | 0.06 kcal/mol
TTTGACACGTGATAGA | 0.14 kcal/mol
TAAATCACGTGTTGAG | 0.1 kcal/mol
TTTCTCACGTGTTCTG | 0.18 kcal/mol
GGGCTCACGTGATTAT | 0.38 kcal/mol
AGTGTCACGTGACTTA | 0.25 kcal/mol

Sequence | relative binding free energy
GCGTCCACGTGGATGT | 0.17 kcal/mol
GATTACACGTGGTGCG | 0.26 kcal/mol
TTATGCACGTGCTAGA | -0.06 kcal/mol
GGGCACACGTGGTGGA | 0.27 kcal/mol
TGGCTCACGTGCAGGG | 0.19 kcal/mol
GTTTTCACGTGGTCGA | 0.09 kcal/mol
AAGAACACGTGAGGGG | 0.34 kcal/mol
GTGGTCACGTGCTGTA | 0.09 kcal/mol
CAGTTCACGTGTTGTG | 0.25 kcal/mol
GTACTCACGTGGTTGT | 0.1 kcal/mol
GGACACACGTGTAGGG | 0.05 kcal/mol
TACATCACGTGGATGG | 0.27 kcal/mol
TAAAGCACGTGGAGGG | -0.1 kcal/mol
GTGAGCACGTGGGCGC | -0.12 kcal/mol
TTTATCACGTGAGCTA | 0.3 kcal/mol
CTAAGCACGTGTTGGG | -0.08 kcal/mol
TTGTGCACGTGACTGG | 0.1 kcal/mol
TACGGCACGTGACGGG | 0.06 kcal/mol
ATTACCACGTGAGGGT | 0.06 kcal/mol
TATGTCACGTGACGTG | 0.11 kcal/mol
TGATGCACGTGCGATT | 0.03 kcal/mol
TGGCTCACGTGGTAGT | 0.18 kcal/mol
GCTTCCACGTGTGGTT | 0.17 kcal/mol
AGGTACACGTGGCTGT | -0.06 kcal/mol
GGAGACACGTGTTGGG | 0.08 kcal/mol
GTTGACACGTGCTTGT | -0.08 kcal/mol

Sequence | relative binding free energy
TTCGTCACGTGGGTAG | -0.11 kcal/mol
CTTTTCACGTGGTATG | 0.14 kcal/mol
TTCATCACGTGTAATT | 0.11 kcal/mol
TAGGGCACGTGGGCTA | -0.22 kcal/mol
TTGGCCACGTGGAGTA | -0.01 kcal/mol
AAGGGCACGTGGTACG | -0.25 kcal/mol
AGGTTCACGTGGGAGT | 0.18 kcal/mol
TCTATCACGTGGTCGG | 0.18 kcal/mol
ATGGTCACGTGTTGGA | 0.01 kcal/mol
ATGAGCACGTGAGGAG | 0.15 kcal/mol
GTTAGCACGTGGGGCC | -0.18 kcal/mol
AGAGTCACGTGTTCAG | 0.09 kcal/mol
AGTTTCACGTGAGATG | 0.44 kcal/mol
AGCGTCACGTGTAGTA | -0.08 kcal/mol
GTCTTCACGTGATTAG | 0.36 kcal/mol
CTGTGCACGTGTTGAG | 0.03 kcal/mol
TCGTACACGTGGTGTC | 0.05 kcal/mol
GTTGACACGTGTGGGG | 0.06 kcal/mol
TTTAGCACGTGCAGGG | -0.13 kcal/mol
GGCGTCACGTGTATAT | 0.15 kcal/mol
AGATGCACGTGTGGGG | -0.02 kcal/mol
GGTGGCACGTGCGCTG | -0.05 kcal/mol
TTGTGCACGTGTTGAA | -0.02 kcal/mol
TGTAGCACGTGGCCTG | -0.16 kcal/mol
GGGCGCACGTGTAGGA | -0.11 kcal/mol
AGCTGCACGTGCGGTA | 0 kcal/mol

Sequence | relative binding free energy
CAGGCCACGTGGGATG | -0.08 kcal/mol
TGTAGCACGTGTTAAA | 0.04 kcal/mol
ATTGGCACGTGGGCGA | -0.28 kcal/mol
TAACGCACGTGGGGAG | -0.2 kcal/mol
GTACTCACGTGGTGGT | 0.16 kcal/mol
AAATGCACGTGTGATT | 0.08 kcal/mol
AATATCACGTGGATAT | 0.2 kcal/mol
GTGCGCACGTGGGTCT | -0.26 kcal/mol
AGGCTCACGTGGAGGT | 0.17 kcal/mol
TTGATCACGTGGCAAG | 0.07 kcal/mol
ATTGGCACGTGGGTTT | -0.23 kcal/mol
ATTTTCACGTGATGGA | 0.26 kcal/mol
CGTTGCACGTGTGGAA | 0.02 kcal/mol
TTGTTCACGTGGCAGG | 0.31 kcal/mol
CTGTGCACGTGTAGGT | 0.05 kcal/mol
TTAGTCACGTGAGTTG | 0.31 kcal/mol
TATATCACGTGCAGTG | -0.03 kcal/mol
GCGGGCACGTGGGCTG | -0.25 kcal/mol
GGGCACACGTGTTGGA | 0.08 kcal/mol
GGTATCACGTGGGACG | 0.06 kcal/mol
GATCGCACGTGTTGAG | -0.01 kcal/mol
CTTTGCACGTGGAGTC | 0.06 kcal/mol
TGTAACACGTGGTTGC | -0.08 kcal/mol
TGGCGCACGTGGTACG | -0.19 kcal/mol
AGGCGCACGTGGGAAT | -0.15 kcal/mol
GTGTACACGTGTGGAC | 0.14 kcal/mol

Sequence | relative binding free energy
CTTCTCACGTGTTTGT | 0.15 kcal/mol
TTGCGCACGTGGGGTT | -0.32 kcal/mol
GTGTTCACGTGGCGAG | 0.32 kcal/mol
ATTGACACGTGCTTTG | -0.06 kcal/mol
TTTCGCACGTGGCTTA | -0.05 kcal/mol
GGGTTCACGTGGTCTT | 0.22 kcal/mol
AATACCACGTGTTTGT | -0.1 kcal/mol
TTAACCACGTGTTTTT | -0.08 kcal/mol
TAGAACACGTGATTTT | 0.13 kcal/mol
GTATTCACGTGTCTGT | 0.12 kcal/mol
TTTGCCACGTGAGAGG | 0.13 kcal/mol
AATTTCACGTGTGGTT | 0.27 kcal/mol
GGGGGCACGTGGTTAT | -0.07 kcal/mol
GGAGTCACGTGGCTAT | 0.03 kcal/mol
TAATTCACGTGGGGCT | 0.18 kcal/mol
TCAGTCACGTGGGGCT | -0.05 kcal/mol
GTTGTCACGTGATATC | 0.32 kcal/mol
AAAGGCACGTGGTGGT | -0.17 kcal/mol
GGTGGCACGTGTAGTT | -0.1 kcal/mol
GTCGGCACGTGGGGGT | -0.17 kcal/mol
GTAACCACGTGGGGTG | -0.16 kcal/mol
AGAGTCACGTGGTCGT | 0.05 kcal/mol
GGGTGCACGTGTGGGA | 0.04 kcal/mol
ACGGTCACGTGATGTG | 0.19 kcal/mol
GTATGCACGTGTGTGA | -0.02 kcal/mol
TTTCTCACGTGAGAGG | 0.5 kcal/mol

Sequence | relative binding free energy
GATTGCACGTGGGAGG | -0.05 kcal/mol
TTCTGCACGTGGGCTG | -0.16 kcal/mol
GTGCGCACGTGATTTT | 0.22 kcal/mol
CTTGGCACGTGGGTGC | -0.28 kcal/mol
GTAGCCACGTGGGGCT | -0.23 kcal/mol
TGAGGCACGTGGTGAG | -0.18 kcal/mol
ATACTCACGTGGGTTG | -0.1 kcal/mol
TATTTCACGTGGAGAC | 0.36 kcal/mol
TGATACACGTGTGTGA | 0.02 kcal/mol
TCTGTCACGTGTGTCG | 0.13 kcal/mol
TTTGTCACGTGCGGTG | 0.03 kcal/mol
GGATTCACGTGGGGTA | 0.18 kcal/mol
TGGGTCACGTGAGTAT | 0.33 kcal/mol
CGATTCACGTGATGAT | 0.43 kcal/mol
GTTCACACGTGGGGGG | -0.04 kcal/mol
AGGTGCACGTGTACGG | -0.02 kcal/mol
CTCGTCACGTGTATTT | 0.22 kcal/mol
AATGTCACGTGTTGAA | 0.1 kcal/mol
ATTTACACGTGAGAGG | 0.27 kcal/mol
TAACACACGTGGGGGG | -0.22 kcal/mol
AGGGGCACGTGGGGAC | -0.14 kcal/mol
CAGGTCACGTGGGTAG | -0.01 kcal/mol
GAAGTCACGTGGGCAG | 0.12 kcal/mol
AGGAGCACGTGTGGGC | -0.07 kcal/mol
TAAAGCACGTGTTGTA | -0.13 kcal/mol
AGATCCACGTGGGAAG | 0.08 kcal/mol

Sequence | relative binding free energy
ATGCTCACGTGAGGGT | 0.3 kcal/mol
GCTGACACGTGCGGGT | 0.06 kcal/mol
AGTGGCACGTGAAACG | 0.16 kcal/mol
TATTGCACGTGGGTGT | -0.23 kcal/mol
TATGGCACGTGTCTCG | -0.02 kcal/mol
GAGGGCACGTGGGGCC | -0.21 kcal/mol
TTCTACACGTGTGTAG | 0.22 kcal/mol
GTGGACACGTGGACGT | 0.05 kcal/mol
TTGGACACGTGGTCGC | 0.04 kcal/mol
CTAATCACGTGGAGGT | 0.14 kcal/mol
AAGTGCACGTGATGAG | 0.13 kcal/mol
TTATTCACGTGCGGGC | 0.34 kcal/mol
GTGGTCACGTGGCAGG | 0.06 kcal/mol
ATCGTCACGTGGTCTT | 0.23 kcal/mol
GTTTCCACGTGGGGCT | -0.01 kcal/mol
TCGGGCACGTGGTTGT | -0.12 kcal/mol
GTTGACACGTGGGGGG | -0.09 kcal/mol
GATCTCACGTGGCGTG | 0.26 kcal/mol
GGAAACACGTGGGTAA | -0.04 kcal/mol
GGATGCACGTGGTAGT | 0 kcal/mol
GTGTGCACGTGTGTTC | 0.03 kcal/mol
AATCGCACGTGCTGTG | 0.02 kcal/mol
